# Some of the results follow.
# Assays:
# Assay in all cases: glycan array binding signal (z-score within array); higher = stronger binding
# Settings in all cases: glycan notation: IUPAC condensed, linker removed
# [1] = molecular target: GalNAc(b1-4)GlcNAc(b1-2)Man
# Outline: (§1)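 Arrays were curated from the Consortium for Functional Glycomics database, 3228 in total, and kept only where the protein sequence was available. Binding is expressed as a within-array Z-score. This score was averaged across arrays of the same protein sequence at different concentrations or buffers and across linkers, and negative values can be read as non-binding.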
# [2] = molecular target: GalNAc(b1-4)GlcNAc(b1-2)Man(a1-3)[GalNAc(b1-4)GlcNAc(b1-2)Man(a1-6)]Man(b1-4)GlcNAc(b1-4)GlcNAc
# Outline: as §1
# [3] = molecular target: GalNAc(b1-4)GlcNAc(b1-3)GalNAc(b1-4)GlcNAc
# Outline: as §1
# GalNAc(b1-4)GlcNAc6S = molecular target: GalNAc(b1-4)GlcNAc6S
# Outline: as §1
# GalNAc(b1-6)GalNAc = molecular target: GalNAc(b1-6)GalNAc
# Outline: as §1
# GalNAc3S(b1-4)GlcNAc = molecular target: GalNAc3S(b1-4)GlcNAc
# Outline: as §1
# GalNAc3S(b1-4)GlcNAc3S = molecular target: GalNAc3S(b1-4)GlcNAc3S
# Outline: as §1
# [4] = molecular target: GalNAc3S(b1-4)[Fuc(a1-3)]GlcNAc
# Outline: as §1
# GalNAc4S6S(b1-4)GlcNAc = molecular target: GalNAc4S6S(b1-4)GlcNAc
# Outline: as §1
# GalNAc6S(b1-4)GlcNAc = molecular target: GalNAc6S(b1-4)GlcNAc
# Outline: as §1
# Glc(a1-4)Glc = molecular target: Glc(a1-4)Glc
# Outline: as §1
# [5] = molecular target: Glc(a1-4)Glc(a1-4)Glc(a1-4)Glc
# Outline: as §1
# Glc(a1-6)Glc(a1-6)Glc = molecular target: Glc(a1-6)Glc(a1-6)Glc
# Outline: as §1
# [6] = molecular target: Glc(a1-6)Glc(a1-6)Glc(a1-6)Glc
# Outline: as §1
# Glc(b1-4)Glc = molecular target: Glc(b1-4)Glc
# Outline: as §1
# Glc(b1-6)Glc = molecular target: Glc(b1-6)Glc
# Outline: as §1
# GlcA(b1-3)Gal = molecular target: GlcA(b1-3)Gal
# Outline: as §1
# GlcA(b1-3)GlcNAc = molecular target: GlcA(b1-3)GlcNAc
# Outline: as §1
# GlcA(b1-6)Gal = molecular target: GlcA(b1-6)Gal
# Outline: as §1
# [7] = molecular target: GlcA3S(b1-3)Gal(b1-4)GlcNAc(b1-2)Man
# Outline: as §1
# [8] = molecular target: GlcA3S(b1-3)Gal(b1-4)GlcNAc(b1-3)Gal(b1-4)Glc
# Outline: as §1
# [9] = molecular target: GlcNAc(a1-3)Gal(b1-4)GlcNAc
# Outline: as §1
# [10] = molecular target: GlcNAc(a1-4)Gal(b1-3)GlcNAc
# Outline: as §1
# [11] = molecular target: GlcNAc(a1-4)Gal(b1-4)GalNAc
# Outline: as §1
# [12] = molecular target: GlcNAc(a1-4)Gal(b1-4)GlcNAc
# Outline: as §1
# [13] = molecular target: GlcNAc(a1-4)Gal(b1-4)GlcNAc(b1-3)Gal(b1-4)Glc
# Outline: as §1
# [14] = molecular target: GlcNAc(a1-4)Gal(b1-4)GlcNAc(b1-3)Gal(b1-4)GlcNAc
# Outline: as §1
# [15] = molecular target: GlcNAc(a1-4)Gal(b1-4)GlcNAc(b1-3)Gal(b1-4)GlcNAc(b1-3)Gal(b1-4)GlcNAc
# Outline: as §1
# [16] = molecular target: GlcNAc(a1-4)Gal(b1-4)GlcNAc(b1-3)Gal(b1-4)[Fuc(a1-3)]GlcNAc(b1-3)Gal(b1-4)[Fuc(a1-3)]GlcNAc
# Outline: as §1
# [17] = molecular target: GlcNAc(a1-6)Gal(b1-4)GlcNAc
# Outline: as §1
# [18] = molecular target: GlcNAc(b1-2)Gal(b1-3)GalNAc
# Outline: as §1
# [19] = molecular target: GlcNAc(b1-2)Man(a1-3)[GlcNAc(b1-2)Man(a1-6)]Man(b1-4)GlcNAc(b1-4)GlcNAc
# Outline: as §1
# [20] = molecular target: GlcNAc(b1-2)Man(a1-3)[GlcNAc(b1-2)Man(a1-6)]Man(b1-4)GlcNAc(b1-4)[Fuc(a1-6)]GlcNAc
# Outline: as §1
# [21] = molecular target: GlcNAc(b1-2)Man(a1-3)[GlcNAc(b1-4)][GlcNAc(b1-2)Man(a1-6)]Man(b1-4)GlcNAc(b1-4)GlcNAc
# Outline: as §1
# [22] = molecular target: GlcNAc(b1-2)Man(a1-3)[GlcNAc(b1-4)][GlcNAc(b1-2)Man(a1-6)]Man(b1-4)GlcNAc(b1-4)[Fuc(a1-6)]GlcNAc
# Outline: as §1
# [23] = molecular target: GlcNAc(b1-2)[GlcNAc(b1-4)]Man(a1-3)[GlcNAc(b1-2)Man(a1-6)]Man(b1-4)GlcNAc(b1-4)GlcNAc
# Outline: as §1
# [24] = molecular target: GlcNAc(b1-2)[GlcNAc(b1-4)]Man(a1-3)[GlcNAc(b1-4)][GlcNAc(b1-2)Man(a1-6)]Man(b1-4)GlcNAc(b1-4)GlcNAc
# Outline: as §1
binder,measurement,setting,value
Clone730PsrP (Streptococcus pneumoniae) (protein) MDHHHHHHHHHHASENLYFQGAMVVGSQTAAATEATAKKVEEDRKKPASDYVASVTNVNLQSYAKRRKRSVDSIEQLLASIKNAAVFSGNTIVNGAPAINASLNIAKSETKVYTGEGVDSVYRVPIYYKLKVTNDGSKLTFTYTVTYVNPKTNDLGNISSMRPGYSIYNSGTSTQTMLTLGSDLGKPSGVKNYITDKNGRQVLSYNTSTMTTQGSGYTWGNGAQMNGFFAKKGYGLTSSWTVPITGTDTSFTFTPYAARTDRIGINYFNGGGKVVESSTT,glycan array binding signal (z-score),[1],-0.395
same,glycan array binding signal (z-score),[2],-0.02
same,glycan array binding signal (z-score),[3],-0.042
same,glycan array binding signal (z-score),GalNAc(b1-4)GlcNAc6S,1.08
same,glycan array binding signal (z-score),GalNAc(b1-6)GalNAc,-0.41
same,glycan array binding signal (z-score),GalNAc3S(b1-4)GlcNAc,0.126
same,glycan array binding signal (z-score),GalNAc3S(b1-4)GlcNAc3S,-0.436
same,glycan array binding signal (z-score),[4],-0.468
same,glycan array binding signal (z-score),GalNAc4S6S(b1-4)GlcNAc,-0.551
same,glycan array binding signal (z-score),GalNAc6S(b1-4)GlcNAc,-0.531
same,glycan array binding signal (z-score),Glc(a1-4)Glc,0.253
same,glycan array binding signal (z-score),[5],2.03
same,glycan array binding signal (z-score),Glc(a1-6)Glc(a1-6)Glc,-0.273
same,glycan array binding signal (z-score),[6],2.73
same,glycan array binding signal (z-score),Glc(b1-4)Glc,0.123
same,glycan array binding signal (z-score),Glc(b1-6)Glc,0.065
same,glycan array binding signal (z-score),GlcA(b1-3)Gal,-0.489
same,glycan array binding signal (z-score),GlcA(b1-3)GlcNAc,1.24
same,glycan array binding signal (z-score),GlcA(b1-6)Gal,-0.151
same,glycan array binding signal (z-score),[7],-0.412
same,glycan array binding signal (z-score),[8],-0.191
same,glycan array binding signal (z-score),[9],-0.247
same,glycan array binding signal (z-score),[10],-0.305
same,glycan array binding signal (z-score),[11],-0.514
same,glycan array binding signal (z-score),[12],-0.546
same,glycan array binding signal (z-score),[13],-0.43
same,glycan array binding signal (z-score),[14],-0.508
same,glycan array binding signal (z-score),[15],-0.533
same,glycan array binding signal (z-score),[16],-0.348
same,glycan array binding signal (z-score),[17],-0.199
same,glycan array binding signal (z-score),[18],0.582
same,glycan array binding signal (z-score),[19],-0.204
same,glycan array binding signal (z-score),[20],-0.183
same,glycan array binding signal (z-score),[21],-0.279
same,glycan array binding signal (z-score),[22],-0.472
same,glycan array binding signal (z-score),[23],-0.398
same,glycan array binding signal (z-score),[24],-0.608

# From the supplement of paper PMC8728848
